Laboratory results reported in PubChem BioAssay (NCI).
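How tested: cells in 96-well plates exposed to compound for 48 hours at five concentrations. At the GI50, growth is halved. TGI is the concentration that stops growth completely.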

Tested on: NCI-H322M lung
Assay: inhibition of tumour cell growth, NCI panel, 48 h

| Compound | GI50 | TGI |
| --- | --- | --- |
| CN(C)CCOc1ccc(C(=O)C2[C@H](c3ccc(Cl)cc3)[C@@H](c3ccccc3)NC23C(=O)Nc2ccccc23)cc1 (some centres not stated) | 11 µM | > 18.5 µM |
| Cn1cc(-c2cc(N)n3nc(-c4cn(C)c5ccccc45)cc3n2)c2cc(Cl)ccc21 | 5.14 µM | 28.9 µM |
| O=C(/C=C/c1cccc(OCc2ccccc2)c1)c1nc2ccccc2[nH]1 | 27.7 µM | > 100 µM |
| FC(F)(F)CN1CCN(CCn2c(C(F)(F)F)cc3c(Cl)ncnc32)CC1 | 5.53 µM | 19.1 µM |
| C=C1CCC2C3(C)COC(c4ccc(F)cc4)OC3CCC2(C)C1C/C=C1/C(=O)OCC1O (configuration not stated) | 4.6 µM | 16.8 µM |
| O=c1[nH]c2ccccc2cc1CSc1ccc(Nc2nccc(-c3ccc(Cl)cc3)n2)cc1 | 1.42 µM | 3.96 µM |
